# In PubChem BioAssay AID485344 (National Center for Advancing Translational Sciences (NCATS), 2010):
# Out of some 340,000 compounds screened, about 6,900 (2%) were called active. No stated cut-off is given here; in the data, active means inhibition above about 30%; inactive means below that, where a call was filed. This is a selection; strong and weak results do not stand in their true shares. Where no call is shown, the source filed none.
# Target: D(2) dopamine receptor (Homo sapiens) (UniProt P14416)
# Assay: HTS Assay for Allosteric Antagonists of the Human D2 Dopamine Receptor: Primary Screen for Antagonists; further: 0% is about no effect
# Settings: HEK293 TREx D2 cells, calcium flux, dopamine EC80; at 10 µM; stronger effect = higher value
# Summary of the method: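 Inhibition of EC80 dopamine-driven calcium flux, recorded kinetically, defines activity here; cells are a tetracycline-induced HEK293 T-REx line expressing force-coupled D2.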
# Sequence of UniProt P14416 (P14416 whole entry, looked up): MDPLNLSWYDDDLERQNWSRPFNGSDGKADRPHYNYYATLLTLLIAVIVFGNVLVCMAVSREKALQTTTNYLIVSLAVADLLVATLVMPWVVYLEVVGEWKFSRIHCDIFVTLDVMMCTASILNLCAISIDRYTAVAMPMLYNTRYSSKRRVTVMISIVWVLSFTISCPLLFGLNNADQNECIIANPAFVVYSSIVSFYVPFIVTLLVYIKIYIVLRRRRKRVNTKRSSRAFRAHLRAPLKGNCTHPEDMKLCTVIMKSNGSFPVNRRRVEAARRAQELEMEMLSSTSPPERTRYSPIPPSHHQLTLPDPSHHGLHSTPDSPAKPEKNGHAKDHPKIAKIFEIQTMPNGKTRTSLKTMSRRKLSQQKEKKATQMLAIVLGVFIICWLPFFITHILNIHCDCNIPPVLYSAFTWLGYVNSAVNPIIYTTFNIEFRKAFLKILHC
row,Structure (SMILES),inhibition
1,COc1ccc(Cl)cc1NC(=O)C(C)Sc1nc2c(c(=O)[nH]1)CCCC2 (centres undefined),2.25%
2,CCOc1ccccc1CNC(=O)c1ccc2c(c1)N(Cc1ccc(C)cc1)CCS2,14.4%
3,CN(C)S(=O)(=O)c1cc(NC(=O)CN2CCN(c3ccccc3)CC2)ccc1Cl,active: 63.9%
4,CC(=O)c1cccc(NC(=O)CSc2nc(=O)n(Cc3ccco3)c3c2CCC3)c1,-16.8%
5,Cc1oc(-c2cccc(Cl)c2)nc1CS(=O)(=O)CC(=O)NC(C)CCc1ccccc1 (centres undefined),-3.66%
6,O=C(CN1C(=O)CSc2ccc(S(=O)(=O)N3CCOCC3)cc21)NCCCN1CCc2ccccc2C1,active: 47.1%
7,CCCCN(CC)C(=O)c1nn(C)c2c1CSc1ccccc1-2,15%
8,Cc1cc(C)cc(NC(=O)CSc2nc(=O)n(CCN3CCOCC3)c3c2CCC3)c1,0.443%
9,Cc1ccc(Cl)cc1NC(=O)CSc1nccn1C,-8.81%
10,COC(=O)c1c(NC(=O)Cc2coc3cc(C)ccc23)sc2c1CCC2,11%
11,CCOC(=O)c1noc2nc(C)n(CC(=O)NC(C)CC)c(=O)c12 (centres undefined),-19.8%
12,O=C(CCc1nnc(CCCCc2ccccc2)o1)NC(c1cccnc1)C(F)(F)F (centres undefined),active: 32.7%
13,O=C(NCc1cccs1)c1ccc2c(c1)N(Cc1cccc(F)c1)C(=O)c1ccccc1S2,18.5%
14,CCc1ccc(NC(=O)CN(c2ccc(Cl)cc2)S(=O)(=O)c2ccsc2C(=O)OC)cc1,-5.78%
15,CCOc1ccc(NC(=O)c2c(NCc3cccc(OC)c3OC)sc3c2CCC3)cc1,-24.7%
16,Nc1c(C(=O)Nc2ccccc2Cl)c2ccccn2c1C(=O)c1ccccc1,-1.43%
17,COc1ccc(Cn2c(O)c(C=Nc3ccccc3C(=O)O)c3ccccc3c2=O)cc1,active: 32.2%
18,Cc1ccc(C)c(CN2C(=O)C(O)(c3c(C)[nH]c4ccccc34)c3ccccc32)c1 (centres undefined),0.734%
19,O=C(C1CCCN(S(=O)(=O)c2cccc3nsnc23)C1)N1CCN(c2ccccc2)CC1 (centres undefined),7.94%
20,O=C1NCN(c2ccccc2)C12CCN(CCCC(c1ccc(F)cc1)c1ccc(F)cc1)CC2,active: 68.7%
21,CCOC(=O)N1CCN(C(=O)CN(c2ccccc2F)S(=O)(=O)c2ccc(C)cc2)CC1,2.87%
22,Cc1ccc(Cl)c(OCCN2CCc3ccccc3C2)c1,active: 65.9%
23,Cc1ccc(Cn2cc(S(=O)(=O)c3cccc(Cl)c3)c(=O)c3cc(F)c(N4CCCCC4)cc32)cc1,8.5%
24,Cc1cc(N2CCC(C)CC2)nc2ccc(NC(=O)Cc3c(F)cccc3Cl)cc12,11.5%

row,Structure (SMILES),inhibition
1,COc1cc(OC)cc(N2C(=O)N(Cc3ccc(C(C)(C)C)cc3)c3ccccc3S2(=O)=O)c1,-9.26%
2,COc1ccc(S(=O)(=O)N2CCC(C(=O)Nc3ccccc3)CC2)cc1OC,15.3%
3,COC(=O)c1scc(-c2ccc(C)cc2)c1S(=O)(=O)N1CCN(c2ccccc2)CC1,25%
4,COc1cccc(NC(=O)CC(=O)Nc2ccc3nc4n(c(=O)c3c2)CCCCC4)c1,-17.7%
5,O=C(CCSCc1cccc(Cl)c1)N1CCN(c2ccc(Cl)cc2)CC1,-1.24%
6,Cc1ccccc1C(=O)N1CC(=O)Nc2ccc(Cl)cc2C1c1ccccc1 (centres undefined),-2.73%
7,CC(C)(C)OC(=O)N1CCC[C@H]1C(=O)Nc1ccc(C#N)cc1,active: 62.7%
8,O=C(c1cccc(Cl)c1)N1c2nc(-c3ccco3)nn2C2(CCCCC2)[C@@H]2CCCC[C@@H]21,18%
9,COc1ccc(CCNC(=O)CCCCn2c(=O)c3ccccc3n(CC(=O)Nc3c(C)cccc3C)c2=O)cc1OC,-2.82%
10,C#CCn1c(=NC(=O)c2ccc3c(c2)OCCO3)sc2cc(OC)c(OC)cc21,-24.2%
11,Cc1ccc(S(=O)(=O)c2nnn3c2nc(NC(C)C)c2cc(Cl)ccc23)cc1C,9.88%
12,CC1(C)N=C(SCc2ccccc2Cl)c2ccccc2N1,-7.86%
13,Cc1cccc(-c2noc(-c3cccnc3NCc3ccc(Cl)cc3)n2)c1,-20.2%
14,CCCCNC(=O)CSc1nc2n[nH]c(C)c2c(=N)n1-c1cccc(Cl)c1C,11.7%
15,COc1ccc2c(c1)sc1ncc(C(=O)NCc3ccccc3F)c(=O)n12,-3.28%
16,COc1ccc(S(=O)(=O)Nc2ccc3oc4c(c3c2)CCCC4)cc1,10.8%
17,Cc1sc2ncn(CC(=O)Nc3ccc(C(C)C)cc3)c(=O)c2c1S(=O)(=O)N1CCN(c2ncccn2)CC1,7.89%
18,CC(=O)N(c1ccccc1)c1nc(C)cc(C)c1C#N,active: 35.3%
19,CCOc1ccc(Nc2nc3c(S(=O)(=O)c4ccc(C(C)C)cc4)nnn3c3ccsc23)cc1,-2.32%
20,CN(C(=O)COC(=O)C12CC3CC(CC(C3)C1)C2)c1c(N)n(Cc2ccccc2)c(=O)[nH]c1=O,active: 46.7%
21,COc1ccc(CCn2c3c(c(=O)[nH]c2=O)C(NC(=O)c2ccc(C(C)(C)C)cc2)(C(F)(F)F)C(=O)N3)cc1OC (centres undefined),-8.85%
22,CC(=O)c1cc(-c2ccc(F)cc2)n(CC(=O)Nc2cc(C)cc(C)c2)c1C,-2.51%
23,Cc1ccc(C(C)C)c(OCCSc2nc3ccccc3n2CC(O)CO)c1 (centres undefined),-2.97%
24,COc1ccccc1Cc1nc2ccccc2nc1SCC(=O)N1CCN(c2ccccc2)CC1,0.0416%

row,Structure (SMILES),inhibition
1,CC(C)Cn1c(-c2ccc(S(=O)(=O)N3CCOCC3)cc2)csc1=Nc1cc(Cl)ccc1Cl,-7.44%
2,COc1cccc(NC(=O)/C(C#N)=C/c2c(C)n(Cc3ccc(Cl)cc3)c3ccccc23)c1,3.4%
3,COC(=O)c1ccccc1NC(=O)c1cnc2c(-c3cccc(C)c3)c(C)nn2c1C,19.1%
4,Cc1nc2ccn(Cc3cccnc3)c(=O)c2cc1C(=O)N1CCN(c2ccc(F)cc2)CC1,-1.07%
5,CN(C)CCNc1oc(-c2ccc(COc3ccc(Cl)cc3)o2)nc1C#N,-14.9%
6,COc1ccc(N2CCN(Cc3nnc(-c4cccc(Br)c4)o3)CC2)cc1,1.36%
7,COc1ccc(CCNC(=O)C(C)n2c(=O)cc(C(F)(F)F)c3c(C)nn(C)c32)cc1OC (centres undefined),9.54%
8,Cc1cc(C)cc(Oc2nc3c(C)cccn3c(=O)c2/C=C(\C#N)c2nc3ccccc3s2)c1,5.74%
9,CCc1ccc(C(=O)c2cn(Cc3ccc(F)cc3)c3cc(OC)c(OC)cc3c2=O)cc1,14.2%
10,CCS(=O)(=O)N1CC(=O)N(c2ccc(Cl)cc2)C(C)(C(=O)NC2CCCCCC2)C1 (centres undefined),9.34%
11,Cc1cccc(C(=O)N[C@H](C(=O)NCCc2ccc(Cl)cc2)C(C)C)c1,active: 38.5%
12,Cc1nnc(NC(=O)CSCc2cc(=O)c3ccccc3[nH]2)s1,9.95%
13,CNC(=O)c1ccc(NC(=O)CC2SC(N3CCCC3)=NC2=O)cc1 (centres undefined),active: 38.5%
14,CNCc1c(OCc2ccc(F)cc2)ccc2ccccc12,active: 74.4%
15,COc1ccc(Cl)cc1NC(=O)C1CCN(C(=O)C2CC(=O)N(c3ccc(C)cc3)C2)CC1 (centres undefined),active: 36.9%
16,COc1ccc(CCNC(=O)CCn2c(=O)c3ccccc3n(Cc3ccccc3)c2=O)cc1OC,-11%
17,Cc1ccc(CNC(=O)CNS(=O)(=O)c2cccs2)cc1,11%
18,CCCCCn1c(=O)[nH]c2cc(C(=O)N3CCN(c4cccc(C(F)(F)F)c4)CC3)ccc2c1=O,-3.39%
19,Cc1ccc(NC(=O)C2CCN(c3nn4cc(-c5ccc(C)cc5)nc4s3)CC2)cc1,-9.96%
20,O=C(Nc1ccc(Br)cc1)C1CCCN1S(=O)(=O)c1ccc(F)cc1 (centres undefined),-13%
21,CC(C)(C)c1ccc(C(=O)Nc2sc3c(c2C#N)CCC(C(C)(C)C)C3)cc1 (centres undefined),-12%
22,COc1ccc(CNC(=O)c2oc3c(c2C)-c2nn(Cc4ccc(Cl)cc4)cc2CC3)cc1,-13.7%
23,COc1ccc(OC)c2sc(N(Cc3cccnc3)C(=O)c3ccco3)nc12,-6.66%
24,Cc1cc(NC(=O)CN2C(=O)c3cccnc3Sc3ccccc32)ccc1Br,-5.09%

row,Structure (SMILES),inhibition
1,CCc1ccccc1NC(=O)Nc1nnc(N(CC)c2ccccc2)s1,6.45%
2,Cc1ccc(CNC(=O)c2cc(-c3ccc(Cl)cc3)on2)cc1,-8.55%
3,CCN1CCN(c2ncc3c(n2)CC(c2ccccc2O)CC3=O)CC1 (centres undefined),7.04%
4,Cc1ccc2oc(=O)c(S(=O)(=O)c3ccc(C(C)(C)C)cc3)cc2c1,18.4%
5,CC1CN(CCCCOc2ccc(Cl)c3ccccc23)CC(C)O1 (centres undefined),active: 58.3%
6,Cc1nc2scc(C)n2c(=O)c1S(=O)(=O)NCCc1ccccc1,-14.8%
7,CCOc1ccc(N(C)S(=O)(=O)c2ccc3[nH]cc(C(=O)NCc4ccccc4)c(=O)c3c2)cc1,-8.93%
8,Cc1ccc(C(=O)c2cn(Cc3ccc(Cl)cc3)c3nc(C)ccc3c2=O)cc1,-10.9%
9,COc1ccc(N2CCN(C(=O)CSc3n[nH]c(-c4ccccc4Cl)n3)CC2)cc1,-14.6%
10,Cc1cc(C)cc(N2C(=O)N(Cc3cccc(F)c3)c3ccccc3S2(=O)=O)c1,-4.73%
11,Cc1ccc(C)c(CN2C(=O)c3ccccc3S(=O)(=O)c3ccc(C(=O)NCCC4=CCCCC4)cc32)c1,14.1%
12,Cc1cc(C)c(NC(=O)C(C)n2nnc3sc4c(c3c2=O)CCCC4)c(C)c1 (centres undefined),23.9%
13,CCCCCc1cc(=O)oc2c(C(CCN3CCN(c4ccccc4)CC3)c3ccc4c(c3)OCO4)c(OC)cc(OC)c12 (centres undefined),active: 50.1%
14,COc1ccc(Nc2oc(-c3ccc(COc4ccccc4C)o3)nc2C#N)cc1,-10.7%
15,CCN(C(=O)c1cc2c(=O)oc3ccc(C)cc3c2s1)c1ccccc1C,-14.4%
16,CCN(CC)S(=O)(=O)c1ccc2nc(NC(=O)c3cncc(Br)c3)sc2c1,-28.5%
17,Cc1cccn2c(=O)c(C(=O)NC(C)c3ccccc3)cnc12 (centres undefined),-9.04%
18,Cc1ccc(OCc2nc(-c3ccc(C(=O)NCc4ccc(OC(C)C)cc4)cc3)oc2C)cc1,4.01%
19,CC1CCCCN1C(=O)c1cc(-c2ccc(Br)cc2)on1 (centres undefined),20.9%
20,COc1ccc(C2N=C(N)Nc3nc4ccccc4n32)cc1 (centres undefined),0.106%
21,CC1=C(C(=O)N2CCN(c3cccc(Cl)c3)CC2)C2(CCCCC2)OC1=O,6.51%
22,O=C(CN(c1ccc(Cl)c(C(F)(F)F)c1)S(=O)(=O)c1ccccc1)N1CCOCC1,active: 34.9%
